Reference: PubChem BioAssay AID1508623 (National Center for Advancing Translational Sciences (NCATS), 2021)
Hit rate of the full screen: of about 48,000 compounds, about 450 (0.94%) were called active. Another 19% or so got no clear call; they are omitted. Calls follow the shape of the dose curve; as a rule, active = well fitted inhibition curve with a large enough effect; inconclusive = small, poorly fitted or top-dose-only effect; inactive = no such curve, though single readings can be large or run the other way. The list shows a part of the results.

Assay: Primary qHTS for Identification of Small Molecule Inhibitors of Huntingtin Promoter Activity; also: nearly all actives have a fitted effect of over 50% in size
Conditions: HEK293 HTT promoter firefly luciferase reporter (activity 0% = vehicle and -100% = no light), 24 h; series mostly up to 57.5 µM; activity change, negative = inhibition: at the top concentration
Procedure, shortened: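 Firefly luciferase readout (Dual-Glo, 10 min RT) after 24 h, 37 °C compound exposure (final up to 57.5 uM) of HEK293 reporter cells cultured 24 h beforehand; PTC124 at 50 uM final as control inhibitor; activity scaled vehicle 0%, zero RLU -100%.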

Activity change, negative = inhibition, inactive:
CCOc1ccc(NC(=O)CN2C(=O)CCSc3ccc(S(=O)(=O)N4CCCC4)cc32)cc1 -16.7%
O=C(NCC(c1cccnc1)N1CCOCC1)C(=O)Nc1cccc(Cl)c1 (stereo unspecified) -12.3%
COc1cccc(-n2cc(C(=O)NCCc3cccc(C)c3)c3ccccc3c2=O)c1 -14.8%
O=C(NCc1ccccc1Cl)C(=O)NCC(c1ccco1)S(=O)(=O)c1cccs1 (stereo unspecified) -26%
O=C(O)c1ccc(-n2nc(-c3ccccc3O)nc2-c2ccccc2O)cc1 -6.52%
COc1ccccc1CNC(=O)C1CCN(c2nn3c(=O)cc(C)nc3s2)CC1 -18.8%
CCC1CCCCN1CCCNC(=O)c1cc2c(Cl)nc3ccc(C)cc3c2s1 (stereo unspecified) -24.2%
COc1ccc(Cn2c(=O)c3oc4ccccc4c3n(CC(=O)Nc3cc(C)cc(C)c3)c2=O)cc1 4.09%
CCC1CCCCN1CCCNC(=O)c1ccc2c(c1)N(Cc1cccc(C)c1)C(=O)c1ccccc1S2(=O)=O (stereo unspecified) -17.3%
Cc1c2cnn(CC(=O)NCCc3ccccc3)c(=O)c2c(C)n1Cc1ccccc1Cl -2.57%
COc1cc(C(=O)NCC(c2ccc(N(C)C)cc2)N2CCCC2)cc(OC)c1OC (stereo unspecified) -1.88%
COc1ccc(/C=C(\C#N)c2nc(-c3ccc(Cl)c(Cl)c3)cs2)cc1OC -3.24%
CCOc1ccc(NC(=O)CSc2nc3nc(C)c(Cc4ccccc4)c(C)n3n2)cc1 -9.42%
CC(=O)c1ccc(NC(=O)CN2C(=O)c3cccnc3Sc3ccccc32)cc1 26%
CCc1ccc(NC(=O)CSc2nc(=O)n(Cc3cccnc3)c3c2CCC3)cc1 -89.9%
O=C(COc1ccccc1F)NC1CC(=O)N(c2ccc3c(c2)OCCO3)C1 (stereo unspecified) 2.32%
Cc1ccc(-c2nc3ccc(Br)cn3c2Nc2ccc3c(c2)OCO3)o1 33.6%
CCc1ccccc1NC(=O)CSc1nc2c(oc3ccccc32)c(=O)n1-c1ccccc1 -13.5%
CCOc1ccccc1CNS(=O)(=O)c1cnc(N)nc1 -2.14%
COc1ccccc1Cn1c(CNS(=O)(=O)c2ccc(Cl)s2)nc2cccnc21 -11.7%
CC(=O)c1cccc(NC(=O)Cn2cnc3c2c(=O)n(C)c(=O)n3C)c1 -16.6%
CCC(=O)N1CCc2cc(Br)cc(S(=O)(=O)N3CCCC(C(=O)Nc4ccc(CC)cc4)C3)c21 (stereo unspecified) -11.1%
CCOC(=O)c1cccc(NC(=O)Cc2ccc(NC(=O)N3CCCCc4ccccc43)cc2)c1 -15.5%
COc1ccc(-n2c(CCC(=O)O)ccc2-c2ccccc2)cc1 -8.98%
CCOC(=O)c1c(C)[nH]c(C)c1S(=O)(=O)N1CCCC(C(=O)N2CCN(c3ccc(Cl)cc3)CC2)C1 (stereo unspecified) -29.3%
Cc1nnc(N2CCN(c3ccccc3)CC2)c2c1nnn2Cc1ccc(F)cc1 -12.2%
